# Measurements reported in the supplement of paper PMC3334620.
# Over roughly 33,000 sequences, “E-score (-0.5 to 0.5)” has its median near -0.016; the highest 2% begin near 0.31. The list shows a part of the results.
# Biological target: Cst6 (UniProt P40535)
# Test: PBM E-score (8-mer binding enrichment) (E-score (-0.5 to 0.5)); higher = stronger / more preferred TF binding; most listed sequences are background and not binding sites
# Settings: protein concentration: 200 nM; construct: GST-DNA-binding domain
# Description: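 Universal 'all 10-mer' protein binding microarrays (Agilent AMADID 015681) probed with GST-tagged S. cerevisiae TFs (full-length or DBD) made by in vitro transcription/translation (PURExpress), about 100-200 nM. Bound TF was detected with fluorescent anti-GST. Each ungapped 8-mer (which stands for itself and its reverse complement) is scored by the PBM enrichment score (E-score), a modified Wilcoxon-Mann-Whitney statistic from -0.5 to +0.5, computed with the Universal PBM Analysis Suite. Scale: above 0.35 generally sequence-specific binding.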
row,Sequence,PBM E-score
1,CATAAGGA,0.0192
2,GCGCGTAC,0.058
3,CAGCCCGG,-0.245
4,AACGACCT,-0.0345
5,CTGTGTGA,0.173
6,CATTGCGG,-0.103
7,TTCATGAA,0.21
8,GCGTGTGA,0.0327
9,CGCTTATC,0.0432
10,ACCCGTAG,-0.254
11,ACAACCTC,-0.0921
12,CAGGGGCG,-0.0903
13,ATCGCAAG,-0.115
14,CTAAAGTA,-0.067
15,GGTGTACA,0.0859
16,AACGCCTC,-0.0434
17,CCAGTAAC,-0.106
18,ATTGCCGA,-0.0119
19,AGCCTGCA,-0.00355
20,CTATATAG,0.00104
21,CCAATTTA,0.196
22,AGAATGGA,-0.00827
23,CTTCCCCA,-0.0198
24,AAACGGGA,-0.0748
25,AAAAATCG,0.0277

row,Sequence,PBM E-score
1,AAGCTCCT,-0.288
2,AAGTTCCG,-0.0702
3,GTGCAGGA,-0.08
4,TACTGAGA,-0.106
5,ACTTCTTA,0.149
6,GCCCCGAA,-0.0904
7,CTATGATA,0.191
8,CAGCTCTA,-0.081
9,AAAGCAGG,-0.0575
10,GCATCCCA,-0.217
11,GGTTGGTA,0.0978
12,CATGGGGG,-0.361
13,TGCCGGCA,-0.012
14,CAGCGCGA,0.0117
15,CGCTACCG,-0.185
16,GGTCTCTA,-0.163
17,AGCATAGC,-0.048
18,GGAGTAAC,-0.129
19,AGCGATCA,-0.0526
20,ACCGGCAC,-0.097
21,ACAGTGAG,-0.0684
22,CTTAGACC,-0.0553
23,AATTACCT,0.175
24,CTTAGCTC,-0.147
25,GGGCATTA,-0.112

row,Sequence,PBM E-score
1,CCTTCCAC,-0.228
2,GCTCACTA,0.0251
3,AAAATCTT,0.117
4,AGAGGGAG,-0.177
5,TGACCCCA,-0.18
6,GGCTAGCC,-0.472
7,ACGGGCTG,-0.21
8,AGTTAACG,0.155
9,TCGGTAGA,0.103
10,CAGTCTAA,0.11
11,GTCGTTTA,0.105
12,AGATGATG,0.346
13,ACCCCAGT,-0.168
14,CAGGAAGG,-0.114
15,CTTCCATA,-0.0671
16,CAGGTAGA,-0.0818
17,GGCCGTTA,0.0215
18,GGGGGGCA,-0.343
19,AGGAGGCG,-0.116
20,GAGGCACA,-0.0227
21,TAAGCGTA,-0.00291
22,CGCGGTTC,0.0154
23,AGGGGCTC,-0.195
24,TACCCTCA,-0.14
25,GCCCAGTA,-0.143

row,Sequence,PBM E-score
1,AAGGTACC,-0.203
2,GTTACAAA,0.182
3,CCAGCGCA,-0.255
4,ACTTGTAC,0.0373
5,CCTCTTCC,-0.298
6,GACGAACC,-0.112
7,ATGGTAGC,-0.138
8,GAGATATA,0.106
9,ATTCCTTC,0.0154
10,CACGTCGC,-0.0365
11,GCAGGAGC,-0.239
12,ATCCACAA,-0.0491
13,ACGGCAGT,0.241
14,CAGCTGAC,0.0776
15,CACACTCG,0.0419
16,CTATCGGC,-0.172
17,CGTTGTGC,0.0437
18,AAGGCGAC,-0.055
19,TAGATTAA,0.156
20,CCCCTGTA,-0.169
21,AACAATCC,0.204
22,CAATCAAA,0.0758
23,ACACTAAT,0.141
24,CGGCTGTC,-0.0915
25,CCCGGCTC,-0.3

row,Sequence,PBM E-score
1,CCTTCGAA,-0.136
2,CGAGCGTC,-0.0638
3,AGACTCTA,-0.169
4,CCGCCCGC,-0.0765
5,ATTATTGC,0.209
6,CCTTGTAA,0.14
7,AAGCCTCG,-0.00537
8,GATCAGAC,-0.142
9,CCAAACAA,0.123
10,ACACCATG,0.0535
11,ACGAATAC,0.167
12,AGTTGTGA,0.211
13,AATACGGC,0.324
14,GGAAACAA,0.0408
15,GGGGCCCC,-0.058
16,CTTCCGAC,-0.188
17,GTTTCGTA,0.198
18,ACCAACTC,-0.0108
19,ACGCCAGT,-0.0905
20,CTTATACC,-0.108
21,AGTCTAAA,-0.0714
22,CCAGAAAC,-0.0108
23,CACTTAAC,-0.0141
24,GTACGTTA,0.124
25,ACCTCCGT,-0.0629

row,Sequence,PBM E-score
1,ACAATCAG,0.177
2,CACGGCAC,0.356
3,GGGTCTTA,-0.0279
4,CTTGTGGC,-0.13
5,ATTATAAT,0.259
6,CCGCGCGA,0.255
7,GTTATATA,0.22
8,TGTACGAA,0.0537
9,CTCGAGAC,0.00278
10,ATCAACTC,0.0417
11,CGGGGCGA,-0.0977
12,AGTACGAT,0.143
13,CAGTAGGC,0.0297
14,AACCCAAG,-0.0264
15,AAGCGGCA,0.231
16,GAAGCAAA,0.011
17,AAGTTGCA,0.0207
18,CGTTAGGA,0.0369
19,CGGTTTAA,0.0305
20,CATCAGAC,0.0226
21,CACTATTA,0.136
22,ACGCCCAT,-0.181
23,ACCCATGG,-0.144
24,CGATATTA,0.248
25,CCATGAGG,-0.159

row,Sequence,PBM E-score
1,GCAGAAAA,0.171
2,CGGAAGAC,-0.113
3,CTTTAGCA,-0.179
4,GCCTTAAA,0.151
5,ACATGTGG,0.0263
6,AAGTTGGA,0.0831
7,CGCGGCCC,0.09
8,GAGCTGAC,0.151
9,CTTTCATC,-0.0143
10,TCATACGA,0.198
11,GCGATCGA,0.162
12,ATCAAACG,0.161
13,ACTTCGGC,0.0436
14,ATTGAAAA,0.31
15,ATCCCGAT,-0.0988
16,GCTAATTA,0.166
17,CAGATTCA,-0.105
18,ACCCTTCC,-0.149
19,GTGGTAAA,0.0101
20,GATTCTGC,0.0379
21,ACCGTGCA,0.00574
22,CCAGAATA,0.164
